{
  "source": "the supplement of paper PMC10441789",
  "note": "Some of the results follow. Antibody binding of pooled human sera (four to six donors per pool; dilution not stated) to peptides of the Trypanosoma cruzi antigen TSSA on microarrays. Quantile-normalised fluorescence in arbitrary units, mean of duplicate arrays; higher = more binding. No active / inactive call. The uninfected pools are read here as the healthy donors of the same country. The strongest signals lie near the top of the scale (about 60,000).",
  "data": [
    {"test_system": "pooled sera of chronic Chagas disease patients, Bolivia", "assay": "antibody binding signal (normalised fluorescence) (arbitrary fluorescence units); higher = stronger serum antibody binding to peptide", "procedure": "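Microarray of 15-residue peptides over residues 30-55 of Trypanosoma cruzi TSSAII, each with 1 to 10 substitutions at naturally variable positions, probed with one serum pool per country.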", "values": [
      {"sequence": "STPPSGKEKKAAAGG", "antibody binding signal": 287},
      {"sequence": "KAAAGGTPSQSGASS", "antibody binding signal": 214},
      {"sequence": "TDNKTAAGEAPSPPG", "antibody binding signal": 446},
      {"sequence": "KKAATGEAPSQSGAS", "antibody binding signal": 7150},
      {"sequence": "TDNKTATGETPSQPG", "antibody binding signal": 3590},
      {"sequence": "KDKKPATGEAPSQPG", "antibody binding signal": 35000},
      {"sequence": "TDKKPATGGAPSPSG", "antibody binding signal": 1010},
      {"sequence": "KDNKTATGGTPSPSG", "antibody binding signal": 298},
      {"sequence": "KTAAGGTPSPPGASS", "antibody binding signal": 200},
      {"sequence": "KDNKTATGGAPSQSG", "antibody binding signal": 212},
      {"sequence": "SGKENKAATGGAPSP", "antibody binding signal": 569},
      {"sequence": "ENKPATGETPSQPGA", "antibody binding signal": 39200},
      {"sequence": "KKAATGEAPSPPGAS", "antibody binding signal": 21500},
      {"sequence": "GTENKAAAGETPSPP", "antibody binding signal": 492},
      {"sequence": "TPPSGTENKPATGGT", "antibody binding signal": 49700},
      {"sequence": "TEKKPAAGGAPSQSG", "antibody binding signal": 181},
      {"sequence": "GTDNKTAAGGTPSPP", "antibody binding signal": 239},
      {"sequence": "GKENKAATGGTPSPS", "antibody binding signal": 564},
      {"sequence": "KPATGETPSQPGASS", "antibody binding signal": 19800},
      {"sequence": "GKDNKPAAGGTPSQP", "antibody binding signal": 201},
      {"sequence": "GTENKAATGETPSPP", "antibody binding signal": 12600},
      {"sequence": "KKTAAGEAPSQSGAS", "antibody binding signal": 5670},
      {"sequence": "SGTENKAATGEAPSP", "antibody binding signal": 41100},
      {"sequence": "GKENKAATGETPSQS", "antibody binding signal": 1930},
      {"sequence": "KEKKAATGETPSQPG", "antibody binding signal": 502},
      {"sequence": "GKDKKPATGGAPSPP", "antibody binding signal": 729},
      {"sequence": "SSTPPSGTENKTAAG", "antibody binding signal": 53400},
      {"sequence": "TDKKTATGGAPSQPG", "antibody binding signal": 270},
      {"sequence": "TPPSGTDNKPAAGGA", "antibody binding signal": 42500},
      {"sequence": "TENKAAAGETPSPPG", "antibody binding signal": 371},
      {"sequence": "ISTPPSGKEKKAAAG", "antibody binding signal": 186},
      {"sequence": "KKTAAGGTPSQSGAS", "antibody binding signal": 369},
      {"sequence": "GKENKAAAGETPSPP", "antibody binding signal": 521},
      {"sequence": "GKDNKAAAGGAPSPP", "antibody binding signal": 183},
      {"sequence": "GKDNKPATGETPSQS", "antibody binding signal": 26100},
      {"sequence": "SGKDKKTAAGGTPSQ", "antibody binding signal": 201},
      {"sequence": "TPPSGKDNKTATGGA", "antibody binding signal": 354},
      {"sequence": "KKPATGETPSPPGAS", "antibody binding signal": 4690},
      {"sequence": "KEKKAATGETPSPSG", "antibody binding signal": 326},
      {"sequence": "GKDNKAAAGGTPSPP", "antibody binding signal": 215}
    ]}
  ]
}
